Sequences with one replicate were seen in a single cluster, so their values are uncertain.
Test system: ATP
Experiment: switch fluorescence ratio, 500 uM ATP over buffer (Cy3 cluster intensity, sum of 5 cycles each) (fold (ratio)); higher = stronger signal-on switching upon ATP binding; sequences stand for … in TCGTCGGCAGCGTCAGATGTGTATAAGAGACAGTTTTTTTTTTTTTTTTTTTTTTTTT…TC
Details: aptamer strand: ATP DNA aptamer (quencher-CACCTGGGGGAGTATTGCGGAGGAAGG + anchor), 100 nM annealed; ATP concentration: 500 uM; one replicate
Summary of the method: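 Switching-strand clusters labelled with Cy3 on a modified Illumina MiSeq flow-cell were annealed to 100 nM quencher-labelled ATP aptamer, imaged in selection buffer, and re-imaged after 15 min with 500 uM ATP at 22 °C. This was done over five cycles with NaOH stripping and re-annealing in between. The fluorescence ratio is summed target-cycle over summed buffer-cycle Cy3 intensity per cluster, averaged per switch-domain sequence, excluding clusters outside 100-1000 RFU.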
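Note: ATP exposure 15 min at 22 °C before imaging.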

Row | Sequence | switch fluorescence ratio
1 | TTAGGCGACG | 0.961
2 | CAAATCGGCA | 1.03
3 | CGGGCAAAC | 3.72
4 | CAACATGTAC | 1.23
5 | TTCGACATGG | 1
6 | TATCATAGTG | 1.01
7 | GGGAGAACTC | 0.994
8 | GACACGAGTT | 1.07
9 | ACCAGTATGA | 1.06
10 | TTTGGGCCCT | 0.956
11 | CTAAGGGGTA | 0.986
12 | GGCGGGCATT | 0.978
13 | GGAAGACATA | 1
14 | TTGCACCGAT | 1.06
15 | AACTGATAGA | 1
16 | GGGAGGGCGC | 1.02
17 | CAGACGGGTT | 1.01
18 | TTCGTGGTCT | 1.01
19 | TGATGGTTCG | 0.96
20 | CGGTGCTGTG | 1.03
21 | TCCCTTACTC | 1.21
22 | AACTTCTATA | 1.03
23 | TCGGACATAC | 3.5
24 | GCACTTTTCA | 0.965
25 | GGACCAGGCA | 0.977
26 | TGCTGCCTT | 1.04

Row | Sequence | switch fluorescence ratio
27 | GTATGTGGAA | 1.02
28 | GCATGGTATA | 0.975
29 | CACTCTATGG | 1.07
30 | ATGTGCCTTT | 1.01
31 | GTATTGGTGG | 1.01
32 | GGTCTTACTT | 1.04
33 | TTATCGTAA | 0.996
34 | AGTTGTAGCA | 0.991
35 | CAAAGAGAT | 0.994
36 | AGATTGTG | 0.994
37 | GGACTAGATT | 0.989
38 | ATAAGGCTCT | 1.01
39 | TTCCAACT | 1.09
40 | GCATTTTAGT | 0.963
41 | TAAGGATTTT | 0.965
42 | AGCCTGATGC | 0.999
43 | TCAACGGCTT | 1.01
44 | GGGCATCTTA | 1.03
45 | GGTAATCCTC | 1.06
46 | TCGAAGGAAG | 1.01
47 | TTCCGTCGCT | 1.04
48 | GGTCGTGGG | 0.996
49 | CTTTATGTAC | 1.07
50 | GTCGGTGCAA | 1.24
51 | CGCAACTAAT | 1.73
52 | TACGGGAGGT | 1.03

Row | Sequence | switch fluorescence ratio
53 | ATAAGCGCCC | 1.24
54 | AATCCAGTG | 1.11
55 | TGACTGCGTT | 1.04
56 | CAGACGGGCT | 1.08
57 | GCCTCCGGAT | 2.28
58 | GAGCGATAGT | 1.05
59 | CGTCACAGTA | 1.03
60 | CGTTTAGCC | 0.99
61 | ATACAGTGGC | 0.967
62 | CCTATTTTGT | 1.01
63 | CATCGGCGGA | 1.07
64 | ATCTCCAGGC | 1.17
65 | ATCGAAGCGC | 1.05
66 | GATTCGCGCC | 1.03
67 | TTTGTCTTGA | 1.17
68 | AGTTTTGTCA | 1.01
69 | CGGATGGTGG | 1.04
70 | CTCATGCTGG | 0.98
71 | CAAACTTGT | 1.07
72 | TCGGGGGACC | 1.01
73 | GAAGCCAATC | 3.59
74 | TTGTTGACTC | 0.996
75 | GCACCATGG | 1.12
76 | TAAGAGGCAA | 1.21
77 | TCCGCTTAGG | 1.2
78 | ACTGTTGCCA | 0.984

Row | Sequence | switch fluorescence ratio
79 | CTCAGTCGTC | 1.04
80 | AGGCCCCCAA | 1.13
81 | TTGTACTGGA | 0.951
82 | TGAATTCGAA | 0.994
83 | TAGGGACACA | 1.11
84 | CGTGACGTTA | 1.06
85 | TGAATTAAG | 0.952
86 | AATCAGGTCT | 1.02
87 | TGAAAAATA | 1.6
88 | TATCTCATAT | 0.975
89 | CGAGAGTCGG | 0.91
90 | TTAACGTTT | 0.987
91 | CTGACAGGGG | 0.987
92 | GTGGGGTCAG | 0.947
93 | AAGAGCCAAC | 1
94 | TCGTCTCAGG | 1
95 | GAAAAAGATG | 0.963
96 | ATACACCTCG | 1
97 | CATAACAGTG | 1
98 | TCAGCAGGTG | 6.02
99 | TTGCTGTGTT | 1.03
100 | TCCCGTGGGC | 1.11
101 | CGCTCGACTT | 1.05
102 | AAATACGCTA | 1.3
103 | CTGCCTAGGG | 1.04
104 | TACCGGAC | 1.86

Row | Sequence | switch fluorescence ratio
105 | TCATGATCGC | 1.01
106 | TTCGAAGTTT | 0.997
107 | TACAGTGAAC | 0.992
108 | AAACCCGAGT | 1.02
109 | CATCTAAACG | 0.994
110 | CTGTAAGCAG | 1.04
111 | AATTTACTAC | 1.05
112 | CGAGGCTAG | 1.13
113 | CGCGTGTACA | 1.04
114 | CGTCAGACGG | 0.978
115 | ACGTGTTCTC | 1.01
116 | TTCCGTCGT | 1.04
117 | AAATAGGGGC | 0.907
118 | TAGCTACCTG | 1.07
119 | TGCTGGCATC | 1.02
120 | AGAGGCAGCG | 1.04
121 | TTGGTAAGTG | 0.954
122 | GCAAACGATA | 1.1
123 | TGTCTAGAGC | 1
124 | TGTCACGGCT | 1.01
125 | TGTCGGTTTC | 0.986
126 | GCGGGAGCAA | 1.51
127 | CTCGCACGTA | 1.04
128 | AGGTTGGACA | 0.991
129 | CGTATAGTCA | 1.01
130 | AGTATTTC | 1.01

Row | Sequence | switch fluorescence ratio
131 | TATATTAGGA | 0.986
132 | GGTGGGTGAT | 0.986
133 | CTTGGTGAAA | 0.991
134 | GCCGATTGTT | 0.975
135 | CCGCGGCCAT | 1.56
136 | CGGGAAACGG | 1.09
137 | TACACGCTTG | 1.03
138 | AATTTCGCCC | 0.962
139 | CGCTGGGCAT | 0.985
140 | GTGGGTCTGA | 0.998
141 | GAGGTATCAA | 1.01
142 | GAGTGTATTA | 1.01
143 | GATAATCCA | 0.996
144 | TGCGTGTACG | 1.04
145 | CCTTCCGTAT | 2.32
146 | TTTCATCTTC | 0.987
147 | GTTGTGACGT | 0.975
148 | TGCGGAAGAT | 1.02
149 | TAAAGGGCA | 0.984
150 | ACTAGTCCGT | 1.03
151 | TGTGGGAT | 1.01
152 | AGGATTGGGA | 1.02
153 | ACACCTGACC | 2.01
154 | GAAAGATCAT | 0.99

— the supplement of paper PMC10126150
